# Reference: publication PMC12820563
# Some of the results follow. The list includes weakly bound sequences.
# Target: T1, MBP-FoxP3dN (UniProt Q99JB6)
# T1 sequence: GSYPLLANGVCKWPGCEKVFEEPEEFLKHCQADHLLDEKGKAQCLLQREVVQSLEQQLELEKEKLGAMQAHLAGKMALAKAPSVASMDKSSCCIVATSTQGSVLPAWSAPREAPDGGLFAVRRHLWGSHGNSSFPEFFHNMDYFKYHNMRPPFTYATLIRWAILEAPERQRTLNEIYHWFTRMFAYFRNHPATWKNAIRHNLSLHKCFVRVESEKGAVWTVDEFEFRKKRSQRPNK
# Assay: PD-seq (MBP pull-down with sequencing)
# Settings: 20 mM Tris-HCl pH 7.5, 100 mM NaCl, 1.5 mM MgCl2, 0.4 uM protein, 0.1 uM dsDNA library, 30 min, room temperature, amylose pull-down; high values mean tight binding; double strand, one strand shown
row,Sequence,binding signal (RPM ratio (pull-down/input))
1,GATGATTGTTCTCCCAGCTGATGAATTCATATTTTCGAGTAAACAAATTTTCCTAATCTTTCTGTTCAAGCGCCATCTAC,0.609
2,GATGATTGTTCTCCCAGCTGATGAATTATATAGATCGAGTAAACAAATTTTCCTAATCTTTCTGTTCAAGCGCCATCTAC,0.438
3,GATGATTGTTCTCCCAGCTGATGAATTTACGAGGTCGAGTAAACAAATTTTCCTAATCTTTCTGTTCAAGCGCCATCTAC,0.366
4,GATGATTGTTCTCCCAGCTGATGAATTCACCTGATCGAGTAAACAAATTTTCCTAATCTTTCTGTTCAAGCGCCATCTAC,0.235
5,GATGATTGTTCTCCCAGCTGATGAATTGGAGATGTCGAGTAAACAAATTTTCCTAATCTTTCTGTTCAAGCGCCATCTAC,0.343
6,GATGATTGTTCTCCCAGCTGATGAATTCCGATAATCGAGTAAACAAATTTTCCTAATCTTTCTGTTCAAGCGCCATCTAC,0.284
7,GATGATTGTTCTCCCAGCTGATGAATTGTGCGTTTCGAGTAAACAAATTTTCCTAATCTTTCTGTTCAAGCGCCATCTAC,5.5
8,GATGATTGTTCTCCCAGCTGATGAATTAGACGCATCGAGTAAACAAATTTTCCTAATCTTTCTGTTCAAGCGCCATCTAC,1.07
9,GATGATTGTTCTCCCAGCTGATGAATTAAACTCATCGAGTAAACAAATTTTCCTAATCTTTCTGTTCAAGCGCCATCTAC,0.448
10,GATGATTGTTCTCCCAGCTGATGAATTCGCGGGATCGAGTAAACAAATTTTCCTAATCTTTCTGTTCAAGCGCCATCTAC,0.312
11,GATGATTGTTCTCCCAGCTGATGAATTGAGTTTATCGAGTAAACAAATTTTCCTAATCTTTCTGTTCAAGCGCCATCTAC,3.31
12,GATGATTGTTCTCCCAGCTGATGAATTCCGTCCATCGAGTAAACAAATTTTCCTAATCTTTCTGTTCAAGCGCCATCTAC,0.515
13,GATGATTGTTCTCCCAGCTGATGAATTCTTGCTCTCGAGTAAACAAATTTTCCTAATCTTTCTGTTCAAGCGCCATCTAC,0.274
14,GATGATTGTTCTCCCAGCTGATGAATTTCTTTTCTCGAGTAAACAAATTTTCCTAATCTTTCTGTTCAAGCGCCATCTAC,1.15
15,GATGATTGTTCTCCCAGCTGATGAATTCTTTGCCTCGAGTAAACAAATTTTCCTAATCTTTCTGTTCAAGCGCCATCTAC,0.403
16,GATGATTGTTCTCCCAGCTGATGAATTTTCTGGATCGAGTAAACAAATTTTCCTAATCTTTCTGTTCAAGCGCCATCTAC,0.161

row,Sequence,binding signal (RPM ratio (pull-down/input))
1,GATGATTGTTCTCCCAGCTGATGAATTCGGGCCCTCGAGTAAACAAATTTTCCTAATCTTTCTGTTCAAGCGCCATCTAC,0.328
2,GATGATTGTTCTCCCAGCTGATGAATTAATGTAATCGAGTAAACAAATTTTCCTAATCTTTCTGTTCAAGCGCCATCTAC,1.05
3,GATGATTGTTCTCCCAGCTGATGAATTCACACGTTCGAGTAAACAAATTTTCCTAATCTTTCTGTTCAAGCGCCATCTAC,0.354
4,GATGATTGTTCTCCCAGCTGATGAATTCCTCTGTTCGAGTAAACAAATTTTCCTAATCTTTCTGTTCAAGCGCCATCTAC,0.248
5,GATGATTGTTCTCCCAGCTGATGAATTTCTTTAATCGAGTAAACAAATTTTCCTAATCTTTCTGTTCAAGCGCCATCTAC,0.295
6,GATGATTGTTCTCCCAGCTGATGAATTTTGCCCTTCGAGTAAACAAATTTTCCTAATCTTTCTGTTCAAGCGCCATCTAC,1.57
7,GATGATTGTTCTCCCAGCTGATGAATTAAGTTTCTCGAGTAAACAAATTTTCCTAATCTTTCTGTTCAAGCGCCATCTAC,1.58
8,GATGATTGTTCTCCCAGCTGATGAATTGAACGCCTCGAGTAAACAAATTTTCCTAATCTTTCTGTTCAAGCGCCATCTAC,0.571
9,GATGATTGTTCTCCCAGCTGATGAATTGCTGGGATCGAGTAAACAAATTTTCCTAATCTTTCTGTTCAAGCGCCATCTAC,0.448
10,GATGATTGTTCTCCCAGCTGATGAATTGACGACGTCGAGTAAACAAATTTTCCTAATCTTTCTGTTCAAGCGCCATCTAC,0.348
11,GATGATTGTTCTCCCAGCTGATGAATTTCTTAGGTCGAGTAAACAAATTTTCCTAATCTTTCTGTTCAAGCGCCATCTAC,0.273
12,GATGATTGTTCTCCCAGCTGATGAATTCTAGTGTTCGAGTAAACAAATTTTCCTAATCTTTCTGTTCAAGCGCCATCTAC,0.908
13,GATGATTGTTCTCCCAGCTGATGAATTAAGGTTTTCGAGTAAACAAATTTTCCTAATCTTTCTGTTCAAGCGCCATCTAC,0.677
14,GATGATTGTTCTCCCAGCTGATGAATTCTTTCGATCGAGTAAACAAATTTTCCTAATCTTTCTGTTCAAGCGCCATCTAC,0.223
15,GATGATTGTTCTCCCAGCTGATGAATTATTCTGTTCGAGTAAACAAATTTTCCTAATCTTTCTGTTCAAGCGCCATCTAC,0.379
16,GATGATTGTTCTCCCAGCTGATGAATTCACTTGTTCGAGTAAACAAATTTTCCTAATCTTTCTGTTCAAGCGCCATCTAC,1.02
